The values that follow come from the RNAGym collection of RNA variant scans (doi:10.7554/elife.90254).

B1: OR4K15 (parent)
chain: GUUAACGGUCAUAGGCCAUGGAAACUAGGAGCACCAUUUCGCUGCCAGUGAAGAAAUGAACAAAGAAAAUCUGGGCCAGGCAGGCAUCAAAAGAAAUAGUCUUGCGCUCAACCAGAAAGUCUGUAAUCAUUUUAAGGGUA

The source gives no read counts; variants with many changes may rest on few reads.

Variants of B1 are the subject of this series. In words: self-cleavage, relative activity (ratio to wild type); higher = more cleavage; in vitro, sequencing; the parent is a self-cleaving ribozyme.
For G15A A55U A59G, the self-cleavage came to 1.

Consider C16A A89G A96G, for which the self-cleavage amounted to 1.23.

Take A13U A18G A82G U127C A140G: the self-cleavage was determined as 0.47.

G15U A86U A117G U120A: the self-cleavage is 2.7.

With C16A A54G C77U A111G, the self-cleavage amounted to 0.02.

Regarding A13U U72A A78G A118U, the self-cleavage worked out at 0.08.

Turning to G14A C71A A96G U122C U133C, the self-cleavage turned out to be 0.08.

As to G15U A62G A78U U100A A110G, the self-cleavage turned out to be 0.04.

Take C16U A117G U120G: the self-cleavage was 1.52.

For G15A A66G A94U A118U U130C, the self-cleavage came out at 0.33.

G14A A59G A67G: the self-cleavage was determined as 0.66.

Consider A13U A23G U26A U37C A63G, for which the self-cleavage stood at 1.29.

As for G14A U43C U49C A118G A129G, the self-cleavage is 0.26.

Turning to A13U A24G A62U C113U, the self-cleavage worked out at 0.08.

A13U A24G A30G U57C U108A A134G: the self-cleavage stood at 0.05.

In the case of A13G U87A A91U A110G, the self-cleavage came to 0.04.

On to C16G A23C G123A, for which the self-cleavage stood at 1.6.

A13U A64G U130C: the self-cleavage came out at 1.1.

C16U U43G A82G: the self-cleavage was 0.77.

With C16G A91G U132C, the self-cleavage is 0.4.

With A13G U39C A67G A69G A111G U122C, the self-cleavage was 0.

For A13U U72G A118G U130C, the self-cleavage came to 0.09.

For the variant C16A A90G G106A, the self-cleavage worked out at 0.05.

For the variant A13U G31U A60G, the self-cleavage worked out at 0.94.

Regarding A13G U72C A111G, the self-cleavage was 0.11.

As for G14A A59G U120C, the self-cleavage turned out to be 0.37.

With A13G U103A A140G, the self-cleavage turned out to be 2.53.

For the variant A13U A33C U37C A63G, the self-cleavage amounted to 1.43.

As to G15C A56G A135C, the self-cleavage was 0.5.

As to G15A A33G U38C U49C A60G C71U, the self-cleavage was determined as 0.13.

Consider G15A A30G U38C A86C A96G, for which the self-cleavage is 1.11.

In the case of A13G U102C A134G, the self-cleavage is 1.22.

As to A13G U130C G137U, the self-cleavage turned out to be 0.33.

Turning to G15A U43A A67U C109U A110G, the self-cleavage amounted to 0.01.

As to G14A A22U A62G A114G A116G, the self-cleavage is 0.05.

With A13U A22G A47G A91G U100G U102C A126G, the self-cleavage worked out at 1.4.

In the case of C16U A54G U102C U139C, the self-cleavage was found to be 1.3.

On to C16A A36C A91G, for which the self-cleavage came to 1.27.

As for G15A A94G C109U, the self-cleavage came to 0.43.

In the case of C16U A36G U72C, the self-cleavage was determined as 0.21.

For the variant G14A A47G A56G A60G U87C, the self-cleavage was found to be 0.78.

As to C16U A55G A67G U139A, the self-cleavage is 1.49.

Take A13G U39A A92G U122C: the self-cleavage worked out at 1.08.

Consider G15C A33G A51G, for which the self-cleavage was 0.62.

A13U G74C A116G: the self-cleavage came out at 0.07.

Regarding G14A U39C A67G, the self-cleavage came to 1.23.

For G14A A52G A110G, the self-cleavage came to 0.07.

For A13U A24G A68G U70C, the self-cleavage stood at 0.85.

On to A13U A23G A125G, for which the self-cleavage is 0.23.

For A13G U49C C85U A94G C105A A135G, the self-cleavage turned out to be 0.04.

As for G15A A51G U102A, the self-cleavage is 0.33.

As to A13U U19G A96G U132C, the self-cleavage is 1.17.

Consider G14A A24G A82G, for which the self-cleavage was 0.66.

G14A A59G A125G: the self-cleavage was found to be 0.56.

Turning to C16U A23G U39C G74A, the self-cleavage was 0.45.

For the variant G14A U39A A90G, the self-cleavage was found to be 1.56.

With G15C A62G A78U, the self-cleavage turned out to be 0.42.

As for G15A U38C A63G A64C G83A A126G, the self-cleavage was 0.88.

With C16U U43C A68G A96G, the self-cleavage was determined as 1.93.

Take G15U A22G U43A A62G U70A A110C A117G U139A: the self-cleavage amounted to 0.1.

Regarding C16U U87A A118G, the self-cleavage worked out at 0.76.

For C16A A30G A52G A96G, the self-cleavage came to 0.84.

Turning to G14C C25U A56G U130C, the self-cleavage stood at 1.31.

As for C16U A96G U103C, the self-cleavage worked out at 1.43.

As for G14A A68G U127G, the self-cleavage came out at 1.57.

For the variant G15C A59U A67G C77U A116G U124A, the self-cleavage turned out to be 0.33.

For the variant G15A G29A C76U A96G A111G, the self-cleavage was 0.02.

As for G15U U39G A96G U131C, the self-cleavage amounted to 1.23.

For A13G U49G A90U, the self-cleavage stood at 0.73.

On to G15U A22G A62U A78G, for which the self-cleavage was 0.2.

Regarding A13U A67G U70A A82U, the self-cleavage is 0.14.

A13U U72C U103C A116G A126G U130C: the self-cleavage amounted to 0.01.

Regarding G15A G41A A62U C81U U102C, the self-cleavage is 0.47.

With C16A A96G A118G, the self-cleavage was 0.21.

Take A13U A82G A114U: the self-cleavage is 0.03.

Take A13U G15A A114C: the self-cleavage worked out at 0.04.

Turning to C16U G31A U43A A56G U57C U97C A126U A129G U139C, the self-cleavage turned out to be 0.57.

For A13G U26C G48A A55G A56G U102C, the self-cleavage came to 1.55.

Regarding C16U A23U U43C A62C A67G A78G U120C U127C A140G, the self-cleavage stood at 0.17.

As for A13U U39A A66G A110G, the self-cleavage is 0.27.

Consider A13U A90G U122C U130C, for which the self-cleavage came to 0.92.

Turning to A13U U37C U38C U102G A129C, the self-cleavage was determined as 0.36.

As to A13U A51U G93A A98U A111G, the self-cleavage was 0.01.
